Results taken from paper PMC9911399, “Two distinct binding modes provide the RNA-binding protein RbFox with extraordinary sequence specificity”.
Positions count from the first letter of the chain named. The list shows a part of the results.

T1: RBFOX1 RRM RbFoxmut (Fox-RRM*) (Homo sapiens, UniProt Q9NWB1 109-208, R118D;E147R;N151S;E152T)
T1 sequence: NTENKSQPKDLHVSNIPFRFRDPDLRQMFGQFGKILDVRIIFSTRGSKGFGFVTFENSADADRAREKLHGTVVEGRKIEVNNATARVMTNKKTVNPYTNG

B1: ACAGGGU (DNA:RNA)
RNA: GGGAGACCGGAAUUCAGAUUGUCCACAGGGUUUAAAUCCCGUCGUAGCCACCA
DNA 1: CAATCTGAATTCCGGTCTCCC
DNA 2: TGGTGGCTACGACGGGATT
B2: UUAUUAC (DNA:RNA)
RNA: B1 RNA with A25U, C26U, G28U, G29U, G30A, U31C
DNA 1: CAATCTGAATTCCGGTCTCCC
DNA 2: TGGTGGCTACGACGGGATT
B3: ACAUAGU (DNA:RNA)
RNA: B1 RNA with G28U, G29A
DNA 1: CAATCTGAATTCCGGTCTCCC
DNA 2: TGGTGGCTACGACGGGATT
B4: ACUAUGC (DNA:RNA)
RNA: B1 RNA with A27U, G28A, G29U, U31C
DNA 1: CAATCTGAATTCCGGTCTCCC
DNA 2: TGGTGGCTACGACGGGATT
B5: GGGGAAC (DNA:RNA)
RNA: B1 RNA with A25G, C26G, A27G, G29A, G30A, U31C
DNA 1: CAATCTGAATTCCGGTCTCCC
DNA 2: TGGTGGCTACGACGGGATT
B6: CACCCGA (DNA:RNA)
RNA: B1 RNA with A25C, C26A, A27C, G28C, G29C, U31A
DNA 1: CAATCTGAATTCCGGTCTCCC
DNA 2: TGGTGGCTACGACGGGATT
B7: UACCUUC (DNA:RNA)
RNA: GGGAGACCGGAAUUCAGAUUGUCCUACCUUCUUAAAUCCCGUCGUAGCCACCA
DNA 1: CAATCTGAATTCCGGTCTCCC
DNA 2: TGGTGGCTACGACGGGATT
B8: CUUGGCA (DNA:RNA)
RNA: B1 RNA with A25C, C26U, A27U, G30C, U31A
DNA 1: CAATCTGAATTCCGGTCTCCC
DNA 2: TGGTGGCTACGACGGGATT
B9: GGUGCCA (DNA:RNA)
RNA: B1 RNA with A25G, C26G, A27U, G29C, G30C, U31A
DNA 1: CAATCTGAATTCCGGTCTCCC
DNA 2: TGGTGGCTACGACGGGATT
B10: AUCUGGA (DNA:RNA)
RNA: B1 RNA with C26U, A27C, G28U, U31A
DNA 1: CAATCTGAATTCCGGTCTCCC
DNA 2: TGGTGGCTACGACGGGATT
B11: CCGGGCA (DNA:RNA)
RNA: B1 RNA with A25C, A27G, G30C, U31A
DNA 1: CAATCTGAATTCCGGTCTCCC
DNA 2: TGGTGGCTACGACGGGATT
B12: CAUAAGC (DNA:RNA)
RNA: B7 RNA with U25C, C27U, C28A, U29A, U30G
DNA 1: CAATCTGAATTCCGGTCTCCC
DNA 2: TGGTGGCTACGACGGGATT
B13: UACACGU (DNA:RNA)
RNA: B7 RNA with C28A, U29C, U30G, C31U
DNA 1: CAATCTGAATTCCGGTCTCCC
DNA 2: TGGTGGCTACGACGGGATT
B14: CUGCUGA (DNA:RNA)
RNA: B7 RNA with U25C, A26U, C27G, U30G, C31A
DNA 1: CAATCTGAATTCCGGTCTCCC
DNA 2: TGGTGGCTACGACGGGATT
B15: UACGAGU (DNA:RNA)
RNA: B1 RNA with A25U, C26A, A27C, G29A
DNA 1: CAATCTGAATTCCGGTCTCCC
DNA 2: TGGTGGCTACGACGGGATT
B16: GGCCUGU (DNA:RNA)
RNA: B7 RNA with U25G, A26G, U30G, C31U
DNA 1: CAATCTGAATTCCGGTCTCCC
DNA 2: TGGTGGCTACGACGGGATT
B17: CAUCGUA (DNA:RNA)
RNA: B7 RNA with U25C, C27U, U29G, C31A
DNA 1: CAATCTGAATTCCGGTCTCCC
DNA 2: TGGTGGCTACGACGGGATT
B18: GUUGGCC (DNA:RNA)
RNA: B1 RNA with A25G, C26U, A27U, G30C, U31C
DNA 1: CAATCTGAATTCCGGTCTCCC
DNA 2: TGGTGGCTACGACGGGATT
B19: CCAUAGG (DNA:RNA)
RNA: B1 RNA with A25C, G28U, G29A, U31G
DNA 1: CAATCTGAATTCCGGTCTCCC
DNA 2: TGGTGGCTACGACGGGATT
B20: UUCUUUC (DNA:RNA)
RNA: B7 RNA with A26U, C28U
DNA 1: CAATCTGAATTCCGGTCTCCC
DNA 2: TGGTGGCTACGACGGGATT

Target: T1, RBFOX1 RRM RbFoxmut (Fox-RRM*)
Experiment: EMSA; HiTS-Eq, 1 nM pool, 10 min; buffer printed only for the single-RNA assays: 10 mM Tris pH 7.5, 150 mM NaCl, 3.4 mM EDTA, 0.001% NP-40, 30 C
Conditions: tags: His6 N-terminal (pET28a); label: 5' 32P
Procedure, shortened: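 A pool of RNA with 7 randomized nucleotides, 5′-radiolabelled and with DNA-annealed flanks, was equilibrated at 1 nM for 10 min in 50 µL with purified RbFox RRM, wild type or mutant, across increasing protein concentrations. Free RNA was separated by 8% native PAGE, excised, reverse-transcribed, barcoded by PCR and sequenced. Relative association constants were obtained from read-count changes of each RNA species versus the control reaction and normalised to the cognate motif.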

Binder | binding signal
B1 | 0.097 KA relative to UGCAUGU
B2 | 0.139 KA relative to UGCAUGU
B3 | 0.129 KA relative to UGCAUGU
B4 | 0.131 KA relative to UGCAUGU
B5 | 0.0664 KA relative to UGCAUGU
B6 | 0.112 KA relative to UGCAUGU
B7 | 0.0485 KA relative to UGCAUGU
B8 | 0.137 KA relative to UGCAUGU
B9 | 0.0836 KA relative to UGCAUGU
B10 | 0.0445 KA relative to UGCAUGU
B11 | 0.0982 KA relative to UGCAUGU
B12 | 0.0858 KA relative to UGCAUGU
B13 | 0.0731 KA relative to UGCAUGU
B14 | 0.112 KA relative to UGCAUGU
B15 | 0.0976 KA relative to UGCAUGU
B16 | 0.179 KA relative to UGCAUGU
B17 | 0.15 KA relative to UGCAUGU
B18 | 0.254 KA relative to UGCAUGU
B19 | 0.0801 KA relative to UGCAUGU
B20 | 0.0436 KA relative to UGCAUGU
